In patent publication US20230060388A1 (SHANGHAI HENLIUS BIOTECH, published 2023):

Assays:
[1] = target: T1, human TIGIT expressed on cells (stably transfected Jurkat cells) (human, UniProt Q495A1 22-244); experiment: cell-based or functional assay
T1 sequence: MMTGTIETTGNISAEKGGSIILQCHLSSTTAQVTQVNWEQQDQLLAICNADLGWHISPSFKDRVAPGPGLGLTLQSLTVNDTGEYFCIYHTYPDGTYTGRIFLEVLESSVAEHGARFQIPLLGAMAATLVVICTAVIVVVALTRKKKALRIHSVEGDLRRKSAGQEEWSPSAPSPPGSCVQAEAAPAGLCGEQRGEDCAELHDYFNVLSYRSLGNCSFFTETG

[2] = target: T1, human TIGIT expressed on cells (stably …); experiment: flow cytometry on h-TIGIT transfected Jurkat cells (whole cell binding), Alexa Fluor 488; representative of three experiments
[3] = target: T1, human TIGIT expressed on cells (stably …); experiment: flow cytometry on h-TIGIT transfected Jurkat cells (whole cell binding), Alexa Fluor 488 [upper panel]
[4] = target: T1, human TIGIT expressed on cells (stably …); experiment: cell-based or functional assay; remark: listed apart in the source
[5] = target: T1, human TIGIT expressed on cells (stably …); experiment: cell-based or functional assay; remark: listed apart in the source
[6] = target: T1, human TIGIT expressed on cells (stably …); experiment: TIGIT WCB: whole cell binding, flow cytometry, h-TIGIT Jurkat cells; mean
Protocol: Affinity to TIGIT was further examined in whole cell binding assay using human TIGIT transfected Jurkat cells. Antibodies were incubated with h-TIGIT transfected Jurkat cells, and binding of antibodies to h-TIGIT was determined using a secondary anti-human-IgG Fc antibody conjugated with AlexaFluor488, which was detected by flow cytometry.

[7] = target: T2, his-tagged recombinant human PD1 ECD (human, UniProt Q15116 in part); experiment: Octet, antibody loaded on the sensor, his-tagged h-PD1 ECD injected first, his-tagged h-TIGIT ECD second
T2 construct: extracellular domain; also called h-PD1 ECD (his-tagged); not shown: his tag
T2 sequence (Q15116 25-170): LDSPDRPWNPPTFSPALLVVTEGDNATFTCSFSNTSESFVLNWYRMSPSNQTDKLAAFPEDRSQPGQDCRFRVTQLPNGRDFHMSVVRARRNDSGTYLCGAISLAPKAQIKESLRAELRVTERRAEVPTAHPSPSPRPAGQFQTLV

B1: 2A3-LT-Fc (hotspot corrected 2A3 ML_DT, wild type Fc) (Fc fusion)
chain: QVQLVESGGGVVQPGRSLRLSCAASGGSFSSYPMGWFRQAPGKERESVAAISSDLRFTYYADSVKGRFTISRDNSKNTLYLQMNSLRAEDTAVYYCAARTSGVGYYSRAQWYDYWGQGTLVTVSS[letters of human IgG1 Fc omitted]
notes: assigned here; also called 2A3-LT-Fc wt; aTIGIT-Fc
EC50 (Mean, nM), TIGIT Blockade Assay [1]: 2.3 nM
EC50 (read off the curve) [2]: ~300 pM
EC50 (read off the curve) [3]: ~500 pM
EC50 (nM), TIGIT blockade NFAT reporter, Average [4]: 0.57 nM
EC50 (nM), TIGIT blockade NFAT reporter, Exp 1 [4]: 0.58 nM
EC50 (nM), TIGIT blockade NFAT reporter, Exp 2 [4]: 0.687 nM
EC50 (nM), TIGIT blockade NFAT reporter, Exp 3 [4]: 0.45 nM
EC50 (read off the curve) of the NFAT luciferase reporter activity, TIGIT blockade assay [lower panel] [5]: ~1000 pM
EC50 [6]: 350 pM
binding result [7]: no binding (tested: concentrations not printed)
